T1: UNK ZnF1-3 (human, UniProt Q9C0B0 31-174)
T1 sequence: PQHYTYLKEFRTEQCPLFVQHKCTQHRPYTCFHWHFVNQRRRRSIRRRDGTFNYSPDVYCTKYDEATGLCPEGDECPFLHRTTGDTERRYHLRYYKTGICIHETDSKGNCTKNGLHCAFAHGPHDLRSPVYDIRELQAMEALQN

B1: chr13:3555642:3555643:+_ENSMUSG00000021218_ENSMUST00000059515|mus_hu|FALSE|FALSE (ssRNA)
RNA: GGGAGUUCUACAGUCCGACGAUCAUCAAAUUUCUUAUACACAUCUCGCAUUGUGGUCUUCUUAGGAUCAAUGCCUUCAAAAGUUCUUGGAUCUUUUUCAUCGAAGUUGGCAACAUACACUAGGAAUUUCCUGAAGCGACGUUUCAACAGAGGAUUGAGCAUCA
B2: chr2:198267414:198267415:-_ENSG00000115524_ENST00000335508|hu_hu|FALSE|FALSE (ssRNA)
RNA: GGGAGUUCUACAGUCCGACGAUCCUUAAUACCAGUGUGUCUCGCUUGCCAGGACUUCUUGCUUUUGCACACAGCUUUUAAGAAGGGCAAUAAAGAAGGAAUGCCCAGGGCAGAGGCUACAACAGCAAAAGCUCUAGCUGUUGUCAACAGAGGAUUGAGCAUCA
B3: 109380955_109381075_4146_CDS_ENSG00000153201_ENST00000283195|human|control|control (ssRNA)
RNA: GGGAGUUCUACAGUCCGACGAUCGCUGUUACAAUGCCACCAAGACCCUUCUUUCUUUGCAACCUGAAAUUCAAAAUUCAGGUUUCCAGCAUCAGAUUUGCAAAUAUCCUUGUUAUCAUGACUUGUGGGUUCUUUUACAAUUCUCAACAGAGGAUUGAGCAUCA
B4: chr12:80258887:80258888:-_ENSMUSG00000021124_ENSMUST00000055262|mus_mus|motif|central (ssRNA)
RNA: GGGAGUUCUACAGUCCGACGAUCAUUUACCAGUCUGCUCUUAGUACGUUCCAACUGGUCUCGUUGCUCCCCCAACUCUUCGGUGAUUUCUGUACCAAUUUGAUCAGUUUCUGUGGCAAUCCGAUGAGAACGCUCAAUGCUUUGCAACAGAGGAUUGAGCAUCA
B5: chr14:31077228:31077229:+_ENSG00000092140_ENST00000206595|hu_hu|FALSE|FALSE (ssRNA)
RNA: GGGAGUUCUACAGUCCGACGAUCUGUUGCAGUAUUUAUCCUGAUUAUAAUCUGUGCCACAUCAAAGUCUGAAACAUCAUCUAAAAUUGGCUGGGUAUUUUCUGGUCCAUAAACAAGGCAGUUAAACAAGGUUUUAGAAAAGAACAACAGAGGAUUGAGCAUCA
B6: 77378017_77378137_4513_3pUTR_ENSG00000048649_ENST00000308488|human|control|control (ssRNA)
RNA: GGGAGUUCUACAGUCCGACGAUCCAUCUUCCUCCUCUUCUGGUGCUCCUGCCUCCUGCCCACCACUUGUCCCAUUGGAGGCUAGGCUUGCACUGGCUGUGCUGUUGUCCUUGGGGGUCUGAGACUUCUCAGUAGGCUUGCCAACAACAGAGGAUUGAGCAUCA
B7: chr1:93819538:93819539:+_ENSG00000117505_ENST00000370267|hu_mus|motif|central (ssRNA)
RNA: GGGAGUUCUACAGUCCGACGAUCCUCUUCAGGAAUGCCGAGGUUUUCCAAACGAGAACUGGCCUUUCUUCUUUUUAAUGCGGCUGUCUUGCAUUCUUGUAAGACUUCUUUUACUUCACUGAUGUAAGAGCCAAAGCCCAAACUCAACAGAGGAUUGAGCAUCA
B8: chrX:69798090:69798091:-_ENSMUSG00000031343_ENSMUST00000055966|mus_mus|mus_mus_mus_hu_False|78_78 (ssRNA)
RNA: GGGAGUUCUACAGUCCGACGAUCAAGUCCCCGGGUUCUUGUCGUCUUGAUUCCCCUUGGCUAGUGGUUCCAGGGAGAAUAUUAAUCAGGAAAAGAAUCCCAAGGCUGGUCAUGUAACAGUGACUUGUUUGUGUGAUUAUCAUCCAACAGAGGAUUGAGCAUCA
B9: chr3:176767854:176767855:-_ENSG00000177565_ENST00000430069|hu_hu|hu_hu_hu_mus_False|68_78 (ssRNA)
RNA: GGGAGUUCUACAGUCCGACGAUCGACAUCCUUGUUACUGGGCACGUCCUGCCCUCCUUCUCGUAUACAAUGUCUAAGCACGAGCUGCGUAGGGCCACUCGUGCUGUUCUCACUGAGGUUCCAGAUUCUUGCCGUGGAGUCUCCCAACAGAGGAUUGAGCAUCA
B10: chr1:220276048:220276049:+_ENSG00000067704_ENST00000302637|hu_hu|hu_hu_hu_mus_True|68_98 (ssRNA)
RNA: GGGAGUUCUACAGUCCGACGAUCGCAAAUUGCCUGGUUGGCUGGAAUUGUCCAAGGCUGGGUGGUCCAGACCAAAACGCUAACAGGGGAUGAGGCAUCUGUAAGAGACUCCAACUUCGGAGGAGGUCUCAGGAGGGGGAAUCUCAACAGAGGAUUGAGCAUCA
B11: 128999148_128999366_914_CDS_ENSMUSG00000057236_ENSMUST00000102598|mouse|control|control (ssRNA)
RNA: GGGAGUUCUACAGUCCGACGAUCUAAGCAAUUCACUUCAGCUGUGUGAGCAUCAACCGAGUGGCUUGGCUUGGAAGUAUUGUUUGAACGAGUGUCCCAAAUCAUAAGCUUCUGGUCAUCAGCAACUGAGCCAAAUAGAGACUCCAACAGAGGAUUGAGCAUCA
B12: 42867276_42867396_6629_CDS_ENSG00000105429_ENST00000334370|human|control|control (ssRNA)
RNA: GGGAGUUCUACAGUCCGACGAUCCCAAACACAGUGCUGCCAGCCCCCAUCUGCUCCCUUAGAGUCCAGGCAGGAGGUACAGUUGGGUAGGAGGUGACAAGGGGUGGGGCAGGGCAGUGGGGGUGAUGAUUCCACCGGCAUGGGCAACAGAGGAUUGAGCAUCA
B13: chr2:168997265:168997266:-_ENSG00000198648_ENST00000355999|hu_hu|motif|central (ssRNA)
RNA: GGGAGUUCUACAGUCCGACGAUCUUUAUUUCGGGUAACAUCACCCCCUGUUGCUAGGAACGCACUUACCCCAAAAUCUGCGGUUUGUACUGAACCAUCCUCACCCAGAAGAAUAUUACCAGCUUUCAAAUCCCUGUGAAUCUGCAACAGAGGAUUGAGCAUCA
B14: chr2:127988141:127988142:+_ENSMUSG00000027381_ENSMUST00000110341|mus_hu|FALSE|FALSE (ssRNA)
RNA: GGGAGUUCUACAGUCCGACGAUCCUGUCAAAAUUCAUCAGUGCAAAACACAAGUAAGCCAGGGAAACUGCAAUACAAAUGCUACAUACGCUGGGUCCUAGAAAACAGGUUAGUGAUGGAUCAGUAUACAGCCAGAUCAGUGCUCAACAGAGGAUUGAGCAUCA
B15: chr11:60965389:60965390:-_ENSMUSG00000042506_ENSMUST00000041683|mus_mus|FALSE|FALSE (ssRNA)
RNA: GGGAGUUCUACAGUCCGACGAUCCCCCUCAAAAUGACAAGGGAAAGAAAAGUGACAUAAAUGUCUUGGUAAUAAAACUCCUAACCACAGUACAAUCAUUGGAUUUUUUUUCCCUCACGAUUUUUUAUUUCAAAGCUAUAAUAACAACAGAGGAUUGAGCAUCA
B16: chr12:101444792:101444793:+_ENSMUSG00000001175_ENSMUST00000110082|mus_mus|FALSE|FALSE (ssRNA)
RNA: GGGAGUUCUACAGUCCGACGAUCUGAUGUAGGGGCUUGACUUUAGGGGCAGGACCACCGACCAAUACAUGCAGACUUUGUGUGUGGACAGAGGGGCUUCUGACAUUCAGCUUCGCUAGAUACAAACAGAAUGAAGAAAUGAACCAACAGAGGAUUGAGCAUCA
B17: chr17:57746147:57746148:+_ENSG00000141367_ENST00000269122|hu_hu|motif|central (ssRNA)
RNA: GGGAGUUCUACAGUCCGACGAUCUUGCCCAGUCUUGCAAGCUGCCUGAAUAUAUUUAAAGUGCACAUCUGGGUCCUGGCGGAAGUUAACAAUGGAUCCCAGAAAAUAAAAGAGACCUUCAAAACUCUUGAAAGAUUCAAAAAGCAACAGAGGAUUGAGCAUCA
B18: chr7:141450121:141450122:+_ENSG00000106028_ENST00000265304|hu_mus|hu_hu_hu_mus_True|8_28 (ssRNA)
RNA: GGGAGUUCUACAGUCCGACGAUCUCAUCCGUUCUAUGCCUUUUCUUUUGUCUGGUCACUCAGAAAUAUAAUGUUAUCAGCUAUGAUUGUUGUUGCUUGCCGCCUCACAUUAUUUUUAUCCAUGUACUCACCAUAGUCCACUUUCAACAGAGGAUUGAGCAUCA
B19: chr1:186326634:186326635:-_ENSG00000047410_ENST00000367478|hu_mus|motif|central (ssRNA)
RNA: GGGAGUUCUACAGUCCGACGAUCAGCGAAUAGCAGACGCUGAUUCUGCUGCUGAAGCUCUUCGAUGUUCCUGUAAGAUACGGGGUGCUGCGAAAUCACUUCAGACGAACUACUGAUGUCAGCAGAGCUGACCUCCUCAUCCCGCAACAGAGGAUUGAGCAUCA
B20: 25965924_25966044_3465_3pUTR_ENSG00000143970_ENST00000336112|human|control|control (ssRNA)
RNA: GGGAGUUCUACAGUCCGACGAUCCCUGAGUGAGCGAAGUUGAACUGUGAGGGCGGCACAACUGAGAGAAGAUUCUGCCUCCGAACCCUCUGAAUGAGAGUCUGAAGGAUCUGAUCUUGGGUUGCUUUACUUAGUCCUUCGUGGCAACAGAGGAUUGAGCAUCA
B21: chr9:36594116:36594117:-_ENSMUSG00000062762_ENSMUST00000115086|mus_hu|FALSE|FALSE (ssRNA)
RNA: GGGAGUUCUACAGUCCGACGAUCUGGGUCACCGAUAAUUCGGGCUGUUACCGACUGAAGCACAGGAAUAAAUACUCGAUAAAACAAGAGGAGACUGAACCAGAACACUCCACCAUUCCAAGCACAACACUGGAAAAUUCUACUCAACAGAGGAUUGAGCAUCA
B22: chr1:39494447:39494448:+_ENSG00000168653_ENST00000372967|hu_mus|hu_hu_hu_mus_False|28_28 (ssRNA)
RNA: GGGAGUUCUACAGUCCGACGAUCGCACCGAGCGGCGUUCUUAUAGGGCUGUUCUGCGCUUAGGAACAUAAAGUGCCGGUCCAGGCUGAUGCCCAGCUUUUUCUGUAUGUCCAAGAAAGGCAUGGCUCUGCAGUGCCCUUGUCACAACAGAGGAUUGAGCAUCA

This is one part of the list.

The test concerns the target T1, UNK ZnF1-3. Briefly: nsRBNS (natural sequence RNA bind-n-seq); RBNS binding buffer (assumed for nsRBNS): 25 mM Tris pH 7.5, 150 mM KCl, 3 mM MgCl2, 0.01% Triton X-100, 500 ug/ml BSA, 20 U/ml SUPERase-In, 4 C; UNK is unkempt and MSI1 is Musashi-1; names of the RNAs are library labels; protein concentration not given here; high values mean tight binding.
On to B1, for which the binding signal was 0.846 enrichment R. Regarding B2, the binding signal came to 1.06 enrichment R.

As for B3, the binding signal worked out at 0.689 enrichment R.

Molecule B4 came in with a binding signal of 0.569 enrichment R.

B5 displayed a binding signal of 1.57 enrichment R. Under B6 stands 0.916 enrichment R; under B7, 0.448 enrichment R; under B8, 0.496 enrichment R. As for B9, the binding signal stood at 0.458 enrichment R. Under B10 stands 1.65 enrichment R; under B11, 1.39 enrichment R. The molecule B12 came in with a binding signal of 1.28 enrichment R. Then B13, with 1 enrichment R; and B14, with 1.64 enrichment R; and B15, with 1.2 enrichment R. In turn, B16 yielded a binding signal of 1.71 enrichment R. Molecule B17 returned a binding signal of 2.1 enrichment R. Regarding B18, the binding signal came to 0.435 enrichment R.

B19 yielded a binding signal of 1.11 enrichment R. B20 yielded a binding signal of 1.15 enrichment R.

In the case of B21, the binding signal was determined as 1.71 enrichment R. With B22, the binding signal came out at 0.838 enrichment R.
